The campaign covered roughly 350,000 compounds. About 260 (0.074%) were called active. The inconclusive results got no clear call from the source; some entries with a clear call stand among them for comparison. Calls follow the shape of the dose curve; as a rule, active = well fitted inhibition curve with a large enough effect; inconclusive = small, poorly fitted or top-dose-only effect; inactive = no such curve, though single readings can be large or run the other way. Where the call is inconclusive, the potency comes from a doubtful curve fit.
Molecular target: Ferritin light chain (Equus caballus) (UniProt P02791)
UniProt P02791, sequence (P02791 whole entry, looked up): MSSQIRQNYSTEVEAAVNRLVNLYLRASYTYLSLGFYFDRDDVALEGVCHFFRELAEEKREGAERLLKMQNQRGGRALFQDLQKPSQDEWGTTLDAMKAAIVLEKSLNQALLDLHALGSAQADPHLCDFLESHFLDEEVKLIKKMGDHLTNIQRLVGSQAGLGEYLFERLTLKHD
Test: qHTS Assay for Identification of Novel General Anesthetics; also: nearly all actives have a fitted effect of over 20% in size
Conditions: apoferritin/1-aminoanthracene competitive binding, fluorescence; activity change, negative = displacement: at 77.5 µM (top of the series)
Procedure, shortened: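 Concentration-response curves derived by four-parameter Hill fitting of normalized fluorescence, where compounds displaced 1-AMA from 10 uM horse apoferritin following a brief 10 min room-temperature incubation; propofol titration acted as positive control.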
% is scaled to controls: 0 for no effect and ±100 for the full control effect; potency is read from the fitted curve at half-maximal effect; tags tell the direction and shape of the fitted curve.

| SMILES | Potency | activity change, negative = displacement |
| --- | --- | --- |
| CCN(CC)C1CC(=O)N(c2cccc(Cl)c2)C1=O (configuration not stated) | inconclusive: 44.7 µM [inhibitor, single point] |  |
| NC(=O)CNC(=O)[C@@H]1CC2(CC(c3cccc(Br)c3)=NO2)CN1C(=O)c1ccc(Br)cc1 (some centres not stated) | inconclusive: 12.6 µM [inhibitor, partial curve] |  |
| Cc1ccc(C2C3=C(CCCC3=O)Nc3[nH]c(=S)[nH]c(=O)c32)cc1 (configuration not stated) | inconclusive: 22.4 µM [inhibitor, partial curve] |  |
| Clc1ccccc1N=C1NN=C(c2cccs2)CS1 | inconclusive: 11.2 µM [inhibitor, partial curve] |  |
| CN(C)Cc1c(O)ccc2oc(Cc3ccccc3)cc12 |  | inactive: -0.281% |
| CCC(C)(C)C1CCc2[nH]nc(C(=O)N/N=C(\C)c3ccco3)c2C1 (configuration not stated) | inconclusive: 39.8 µM [inhibitor, single point] |  |
| CN1CCC(=NNC(=O)C(=O)NC2CCCC2)CC1 |  | inactive: -7.05% |
| COc1ccc(CC(=O)Nc2ccc(-c3cn4ccc(C)cc4n3)cc2)cc1 |  | inactive: 7.55% |
| Cc1nc2ccccc2nc(=O)c1NNc1ccc([N+](=O)[O-])cc1 | inconclusive: 20 µM [inhibitor, partial curve] |  |
| CCOc1ccc(OCC)c(NS(=O)(=O)c2cc(-c3onc(C)c3C)ccc2OC)c1 |  | inactive: -3.23% |
| CCOC(=O)CCN1C(=O)[C@@H]2[C@H]3C(=CC[C@H]2C1=O)C(=O)[C@H]1O[C@H]1[C@H]3O |  | inactive: -1.3% [at 15.3 µM] |
| CCOC(=O)c1c(N)sc(C(=O)N2CCCCCC2)c1C | inconclusive: 25.1 µM [inhibitor, single point] |  |
| NS(=O)(=O)c1ccc(NC(=O)CSC2CCCCC2)cc1 | inconclusive: 14.1 µM [inhibitor, partial curve] |  |
| Cc1ccc(N=Nc2c(=O)[nH]n3c(C)cc(C)nc23)cc1 | inconclusive: 14.1 µM [inhibitor, partial curve, poor fit] |  |
| CCOC(=O)N1CCC(NC(=O)c2ccc3c(c2)N=C(C)c2ccccc2S3)CC1 | inconclusive: 25.1 µM [inhibitor, partial curve] |  |
| COc1ccc(Nc2ccc(N3C(=O)CC(C)C3=O)cc2[N+](=O)[O-])cc1OC (configuration not stated) | inconclusive: 28.2 µM [inhibitor, single point] |  |
| COc1ccc(NC(=O)/C=C\C(=O)N(c2ccc(C(C)C)cc2)C(C(=O)NCc2ccco2)c2ccc(F)cc2)cc1 (configuration not stated) | inconclusive: 4.47 µM [inhibitor, full curve] |  |
| Nc1[nH]ncc1C(=O)Nc1cccc(C(F)(F)F)c1 | inconclusive: 35.5 µM [inhibitor, partial curve] |  |
| CCOC(=O)c1nn(-c2ccccc2)c(=O)c2c(N)scc12 |  | inactive: -20.9% |
| O=C1c2ccccc2C(=O)c2c1oc(C(F)(F)F)c2C(=O)c1ccccc1 | inconclusive: 3.98 µM [inhibitor, partial curve] |  |
| O=C(COC(=O)COc1ccc(Cl)cc1)NC1CCCCC1 | inconclusive: 4.47 µM [inhibitor, full curve, poor fit] |  |

| SMILES | Potency | activity change, negative = displacement |
| --- | --- | --- |
| CCCC[C@H]1C[C@@H]1[C@@H]1N(C(C)=O)[C@H](c2cccc(OC)c2)CC12CC2 | inconclusive: 31.6 µM [inhibitor, single point] |  |
| COc1ccc(N2CCN(C(=O)c3cc(S(=O)(=O)N4CCC(C)CC4)cn3C)CC2)cc1 |  | inactive: 2.02% |
| Cc1cccc(N2CCN(c3nc4ccc(C)cc4n4cnnc34)CC2C)c1 (configuration not stated) |  | inactive: 4.49% |
| O=C(NCC(c1ccc2c(c1)OCO2)N1CCOCC1)c1c(F)cccc1F (configuration not stated) | inconclusive: 2.51 µM [inhibitor, full curve] |  |
| COc1cccc(-c2ccc(NC(=O)C3CCCN(Cc4cnn(C)c4C)C3)cc2)c1 (configuration not stated) | inconclusive: 35.5 µM [inhibitor, partial curve] |  |
| Cc1cc(C)c(S(=O)(=O)/N=C2\C=CC(=O)C(Cl)=C2)c(C)c1 | inconclusive: 28.2 µM [inhibitor, partial curve] |  |
| Cc1ccc(NS(=O)(=O)N(C)C)cc1 | inconclusive: 56.2 µM [inhibitor, single point] |  |
| Cc1nn(Cc2ccc([N+](=O)[O-])cc2)c(=O)n1N(C)c1ncc(C(F)(F)F)cc1Cl | inconclusive: 50.1 µM [inhibitor, single point] |  |
| CC1(C)Cc2ccccc2/C(=C/C(=O)N2CCCCCC2)N1 | inconclusive: 56.2 µM [inhibitor, single point] |  |
| CCCCCCCCOc1ccc(C2CC(=O)NC2=O)cc1 (configuration not stated) | inconclusive: 15.8 µM [inhibitor, partial curve] |  |
| Cc1c(Cl)cccc1NC(=O)C1COc2ccccc2O1 (configuration not stated) | inconclusive: 25.1 µM [inhibitor, partial curve] |  |
| Cc1cccc(NC(=O)Cc2csc(COc3cccc(C)c3)n2)c1 | inconclusive: 2.24 µM [inhibitor, partial curve] |  |
| O=C(NC(=S)Nc1cnc2ccccc2c1)c1ccccc1 | inconclusive: 31.6 µM [inhibitor, partial curve] |  |
| CCOC(=O)Cn1c(=O)n(C2CCCCC2)c2nc(-c3cccc(OC)c3)nc(C(N)=O)c21 |  | inactive: 8.75% |
| Cc1cccc(C(=O)NCC(=O)OCc2cc(=O)n3nc(C4CC4)sc3n2)c1 | inconclusive: 17.8 µM [inhibitor, partial curve] |  |
| Cc1cccc(-n2c(SCC(=O)c3ccccc3)nnc2-c2ccc(Br)cc2)c1 | inconclusive: 4.47 µM [inhibitor, full curve] |  |
| CCOC(=O)c1ccc(NC(=O)CN2C(=O)NC3(CCC(C)CC3)C2=O)cc1 (configuration not stated) | inconclusive: 28.2 µM [inhibitor, partial curve] |  |
| COc1ccc(/C=C2/SC(=S)N(CC(=O)O)C2=O)cc1OCc1ccc(Cl)cc1 |  | inactive: -20.4% |
| CCCNC(=O)N1CCN(S(=O)(=O)c2ccc3c(ccn3C)c2)CC1 |  | inactive: -6.2% |
| CCOc1ccc(S(=O)(=O)Nc2ccc(-c3ccc(OC)nn3)cc2)cc1 | inconclusive: 17.8 µM [inhibitor, partial curve] |  |
| CC1(C)CC2CC(C)(CN2C(=O)c2cccs2)C1 (configuration not stated) | inconclusive: 15.8 µM [inhibitor, partial curve] |  |
